Experimental data from PubChem BioAssay AID624417 (National Center for Advancing Translational Sciences (NCATS), 2012).
Values joined by “and” are separate entries in the source; they are usually repeats but may differ in a detail not shown here. Identical values can stand only once. The campaign covered roughly 410,000 compounds. About 6,400 (1.6%) were called active. Inconclusive means that the source gave no clear call. Such entries were picked first, then a sample of the others. The call rests on the fitted dose curve; in most records, active means well fitted inhibition curve with a large enough effect; inconclusive means small, poorly fitted or top-dose-only effect; inactive means no such curve, though single readings can be large or run the other way. Potencies of inconclusive entries are doubtful fits and often do not repeat.

These compounds were tested against Glucagon-like peptide 1 receptor (Homo sapiens) (UniProt P43220) (assay: qHTS of GLP-1 Receptor Inverse Agonists (Inhibition Mode)). Conditions: HEK293 GLP-1R CRE-luciferase, luminescence, 24 h, GLP-1R form is constitutively active; activity change, negative = inhibition: at 38.3 µM (top of the series) unless noted.
How it was run: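 Luminescence readout: a drop in cAMP-driven luciferase signal flags inverse agonism at a constitutively active GLP-1R stably expressed in HEK293. Compound exposure lasted 24 hr at 37 deg C, 5% CO2.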
Further: nearly all actives have a fitted effect of over 55% in size.
On the % scale 0 is the no-effect control and ±100 the full control effect; potency means the concentration at half of the fitted maximal effect; tags describe the fitted curve by direction and shape.

Sequence of UniProt P43220 (P43220 whole entry, looked up): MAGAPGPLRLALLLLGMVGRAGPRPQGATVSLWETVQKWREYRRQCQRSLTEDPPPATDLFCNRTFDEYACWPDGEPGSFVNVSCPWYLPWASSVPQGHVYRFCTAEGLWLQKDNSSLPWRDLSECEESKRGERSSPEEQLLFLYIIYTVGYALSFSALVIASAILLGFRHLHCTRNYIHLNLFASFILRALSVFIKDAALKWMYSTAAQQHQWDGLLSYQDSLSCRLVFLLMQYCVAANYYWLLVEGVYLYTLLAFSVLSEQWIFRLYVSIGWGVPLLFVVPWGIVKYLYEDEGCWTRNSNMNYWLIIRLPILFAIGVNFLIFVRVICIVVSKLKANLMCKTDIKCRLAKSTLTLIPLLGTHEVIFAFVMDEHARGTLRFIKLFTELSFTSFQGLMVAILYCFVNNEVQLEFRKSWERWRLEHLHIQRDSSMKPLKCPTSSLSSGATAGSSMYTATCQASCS

Potency, inconclusive:
N#Cc1c2n(c3c(=O)n(Cc4ccccc4Cl)cnc13)CCCCC2 0.794 µM [inhibitor, full curve, poor fit]
CCC(Cc1ccccc1)n1c(=S)[nH]c2ccccc2c1=O (configuration not stated) 11.2 µM [inhibitor, partial curve, poor fit]
NC(=O)SCC(=O)Nc1ccc(Cl)cc1 10 µM [inhibitor, single point]
CN(Cc1ccccc1)C(=O)c1nc2ccccn2c1CN1CCc2sccc2C1 28.2 µM [inhibitor, single point]
Cc1ccc(NC(=O)Cn2c(=O)oc3cc(S(=O)(=O)N4CCC(C)CC4)ccc32)cc1C 22.4 µM [inhibitor, single point]
COc1ccc(C)cc1NC(=O)NC(C)c1ccc2c(c1)OCO2 (configuration not stated) 10 µM [inhibitor, partial curve]
NCCCC[C@H]1CNC(=S)N1CCc1cc(C(F)(F)F)cc(C(F)(F)F)c1 11.2 µM [inhibitor, single point]
COC(CNC(=O)c1ccc2c3c(onc13)-c1ccccc1C2=O)OC 28.2 µM [inhibitor, single point]
CSc1nsc(SC)c1C(=O)N1CCN(S(=O)(=O)c2ccc(C)cc2)C1C(C)C (configuration not stated) 28.2 µM [inhibitor, single point]
COc1cccc(Nc2sc(C(=O)c3ccc(F)cc3)c(N)c2C(=O)NCc2ccc(Cl)cc2)c1 12.6 µM [inhibitor, single point]
CN(Cc1ccccc1)S(=O)(=O)c1cc(Br)cc2c1N(C(=O)C1CC1)CC2 10 µM [inhibitor, partial curve, poor fit]
Cc1cccc2nc(CSc3ccc(Cl)cc3)cn12 28.2 µM [inhibitor, single point]
CN(C)c1ccc(/C=N/NC(=S)NCc2ccco2)cc1 25.1 µM [inhibitor, partial curve, poor fit]
CCOC(=O)c1oc2nc(C(C)C)c3c(c2c1N)CCC3 8.91 µM [inhibitor, partial curve]
Cc1cccc(N2CCN(C(=O)c3cccc(S(=O)(=O)N4CCc5ccccc5C4)c3)CC2C)c1 (configuration not stated) 10 µM [inhibitor, partial curve, poor fit]
Cc1ccc(C)c(Cn2c(-c3cccs3)nc3ccccc32)c1 17.8 µM [inhibitor, partial curve, poor fit]
Cc1ccc(-n2nc3ccc(NC(=O)c4ccc5c(c4)OCO5)cc3n2)cc1 22.4 µM [inhibitor, single point]
CN1CCN(C(=O)c2ccc(COc3ccc(C(C)(C)C)cc3)o2)CC1 10 µM [inhibitor, single point]
CC(C)n1cc(CN2CCC(C(=O)Nc3ccc(Oc4ccccc4F)cc3)CC2)cn1 4.47 µM [inhibitor, partial curve]
Cc1ccc([C@H]2C[C@@H](O)[C@H](n3cc(-c4ccc(F)cc4)nn3)CN2Cc2cccs2)cc1 28.2 µM [inhibitor, single point]
O=C(NCC1CC1)c1cccc2c(-c3ccc(F)c(F)c3)coc12 11.2 µM [inhibitor, single point]
N=c1sccn1CC(=O)Nc1cccc(S(=O)(=O)N2CCCCCC2)c1 14.1 µM [inhibitor, single point]
COc1cc(NC(=O)c2ccccc2)c(OC)cc1NC(=O)CN1C(=O)NC2(CCCCC2C)C1=O (configuration not stated) 28.2 µM [inhibitor, single point]
N#Cc1c(-c2ccc(Cl)cc2)c(-c2ccc(Cl)cc2)nn(CCO)c1=O 3.55 µM [inhibitor, partial curve, poor fit]
CC(OC(=O)/C=C/c1cccs1)C(=O)NC1CCCCC1C (configuration not stated) 10 µM [inhibitor, partial curve, poor fit]
CCOc1ccc(NC(=O)CC2C(=O)N(C)C(=S)N2Cc2ccc3c(c2)OCO3)cc1 (configuration not stated) 28.2 µM [inhibitor, single point]
OCCN(Cc1ccccc1)CC(O)COc1ccc2c(c1)OCO2 (configuration not stated) 11.2 µM [inhibitor, single point]
CCN(CC)S(=O)(=O)c1cccc(C(=O)N[C@H](C(=O)NCc2ccccc2F)C(C)C)c1 28.2 µM [inhibitor, single point]
CC(C)(C)c1ccc(NC(=O)C2CCCN(c3cnccn3)C2)cc1 (configuration not stated) 14.1 µM [inhibitor, partial curve, poor fit] and 25.1 µM [inhibitor, partial curve, poor fit]

Potency, active:
CC(CN1CCNCC1)(NS(=O)(=O)c1ccccc1)c1ccccc1 (configuration not stated) 3.55 µM
COCC(=O)Oc1cc(-c2ccc(C)cc2C)c(OC(=O)COC)c(-c2ccc(C)cc2C)c1 2.51 µM

Activity change, negative = inhibition, inactive:
Cc1ccc(-c2noc(CNC(=O)c3ccc(Br)o3)n2)cc1 -20%
CCCCN(C)CCCNC(=O)c1cc(-c2ccc(Br)s2)nc2ccccc12 -0.692%
CCOc1ccccc1CNS(=O)(=O)c1ccc2[nH]c(=O)ccc2c1 11.5%
CC(=O)Nc1cccc(OCc2ccc([N+](=O)[O-])cc2)c1 34.1%
CC(NC(=O)[C@H](NC(=O)[C@@H]1Cc2ccccc2CN1)c1ccccc1)c1ccccc1 (some centres not stated) -14.7%
CC(=O)NC(=S)NNC(=O)CCc1ccccc1 -3.66%
Cc1ccc(C)c(S(=O)(=O)N2CCN(C(=O)c3ccccc3Cc3ccccc3)CC2)c1 13.7%
CC1CCCC=CC2CC(OC(=O)CN(C)C)CC2C(O)C=CC(=O)O1 (configuration not stated) -61.6%
CCN(CC)CCC(=O)c1ccc(F)cc1 5.44%
CC(C)(C)C(=O)C(Cl)C(=O)Nc1ccccc1 (configuration not stated) 18.2%
COc1ccc(CC(=O)NCc2cccc(CNC(=O)Cc3ccc(OC)c(OC)c3)c2)cc1OC 14.1%
